Test results as given in PubChem BioAssay AID686978 (National Center for Advancing Translational Sciences (NCATS), 2013).
The campaign covered roughly 420,000 compounds. About 64,000 (15%) were called active. This list was built around the results that the source calls inconclusive (neither active nor inactive); the mix of calls is not that of the screen. Calls come from the whole dose curve; as a rule, active = well fitted inhibition curve with a large enough effect; inconclusive = small, poorly fitted or top-dose-only effect; inactive = flat fitted curve, though single readings scatter. Potencies of inconclusive entries are left out as doubtful fits.

Assay: qHTS for Inhibitors of human tyrosyl-DNA phosphodiesterase 1 (TDP1): qHTS in cells in absence of CPT; note: nearly all actives have a fitted effect of over 55% in size
Conditions: DT40 Tdp1-/- hTDP1 cells, no CPT, ATP luminescence, 48 h; series mostly up to 46.2 µM
Procedure, shortened: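 Camptothecin absent (DMSO only). Human TDP1-complemented DT40 knockout cells, 400 cells/well, 37 °C for minimum 48 hr; ATP measured via CellTiter-Glo, 30 min dark incubation, luminescence.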
Potency is the fitted concentration of half-maximal effect; tags give direction and shape of the fitted curve.

Row | SMILES | Potency
1 | Cc1nc(-c2cccc(S(=O)(=O)N3CCC(C(=O)NCc4ccccc4Cl)CC3)c2)no1 | inactive
2 | COc1cc(CNc2ccc(N3CCCC3)cc2)cc(Cl)c1OC | active: 2.59 µM
3 | CCC/C=N/NC(=O)c1cccc(Br)c1 | inactive
4 | O=C(NNS(=O)(=O)c1ccc(F)cc1)C1CCCCC1 | inactive
5 | CCNC(=O)C12CCC(C)(C(=O)C1Br)C2(C)C (stereo not given) | inactive
6 | CC(C)(C)NC(=O)C(c1ccncc1)n1c(=O)c(-c2cc3ccccc3[nH]2)nc2ccccc21 (stereo not given) | active: 16.4 µM
7 | CCc1c(C)sc2c1CCN(C(=O)Nc1cc(C)ccc1C)C2c1ccc(OC)cc1 (stereo not given) | active: 25.9 µM
8 | CCCCNc1ccc(C(CC(N)=O)NC(=O)c2ccccc2)cc1[N+](=O)[O-] (stereo not given) | active: 14.6 µM
9 | COc1ccc(NC(=S)NCCCc2ccccc2)cc1 | inconclusive [inhibitor, partial curve]
10 | O=C(NNC(=S)Nc1ccc(F)cc1)C1CC1c1ccc(Cl)cc1 (stereo not given) | inconclusive [inhibitor, single point]
11 | O=C(Nc1c2c(nn1-c1ccc(Cl)cc1)CS(=O)(=O)C2)c1ccccc1 | inactive
12 | O=c1[nH]c(Nc2ccc3c(c2)OCCO3)nnc1Cc1ccc(Cl)cc1 | inconclusive [inhibitor, partial curve, poor fit]
13 | O=C(Nc1nnc(-c2ccccc2)o1)C1CCCCC1 | inconclusive [inhibitor, single point]
14 | O=C(NNc1ccccn1)C(c1ccccc1)c1ccccc1 | inactive
15 | CC[C@H](C)C(=O)O[C@H]1C[C@H](O)C=C2C=C[C@H](C)[C@H](CC[C@@H](O)C[C@@H](O)CC(=O)O)[C@H]21 | inactive
16 | COc1cccc(-c2nnc3n2N=C(C(C)(C)C)CS3)c1 | active: 9.2 µM
17 | O=C(NNC(=O)c1cccc(C(F)(F)F)c1)c1ccc(-n2cnnn2)cc1 | inactive
18 | Cn1cnnc1SCC(=O)Nc1nc(-c2ccc(F)cc2)cs1 | inactive
19 | Cc1cc(CSc2ccccc2)ccc1NC(=O)COc1ccccc1 | inconclusive [inhibitor, partial curve]
20 | CC1(C(=O)NS(=O)(=O)c2ccc(C#N)cc2)CCN1C(=O)C1(c2ccc(Cl)cc2)CC1 (stereo not given) | inactive
21 | Cc1ccc(C)c(NC(=O)c2nnn(Cc3ccc(F)cc3Cl)c2N)c1 | active: 6.51 µM
22 | CCOc1ncccc1C(=O)OCC(=O)c1cccc(Br)c1 | inactive
23 | COc1cc(S(=O)(=O)Nc2cccc(C)c2)ccc1NC(=O)c1ccncc1 | active: 13 µM
24 | Cc1ccc2cc(CN(c3cccc(C)c3C)S(=O)(=O)c3ccccc3)c(=O)[nH]c2c1 | inconclusive [inhibitor, single point]
25 | CCOC(=O)N1CCN(c2nc(-c3ccc(F)cc3)cs2)CC1 | inconclusive [inhibitor, partial curve, poor fit]

Row | SMILES | Potency
26 | Cn1nc(-c2ccccc2F)c2cc(C(=O)NCc3cccc(Cl)c3)sc21 | inconclusive [inhibitor, single point]
27 | Oc1ccc(CNc2ccccc2)c2cccnc12 | active: 2.59 µM
28 | COc1ccc(N2CC(O)=C(c3nc(-c4ccc(Cl)cc4)cs3)C2=N)cc1 | inconclusive [inhibitor, partial curve]
29 | O=C(Nc1ccc(F)cc1)Nc1nnc(-c2ccccc2)o1 | inconclusive [inhibitor, single point]
30 | O=C(Cc1n[nH]c(=O)c2ccccc12)Nc1cccc(S(=O)(=O)N2CCCC2)c1 | inconclusive [inhibitor, partial curve]
31 | COc1ccc(NC(=O)c2cncn2-c2ccccc2)cc1 | inactive
32 | Cc1cc(C)cc(NC(=O)c2cc(S(=O)(=O)N3CCCC3)ccc2F)c1 | active: 20.6 µM
33 | O=C(CC1SC(=O)N(Cc2cccc3ccccc23)C1=O)Nc1nccs1 (stereo not given) | inconclusive [inhibitor, single point]
34 | COC(=O)c1cnc(Oc2ccc(NC(=O)NC(=O)c3c(F)cccc3F)cc2)cc1C(F)(F)F | inconclusive [inhibitor, partial curve]
35 | Cc1nnc(NC(=O)CSc2cn(CCNC(=O)c3ccccc3)c3ccccc23)s1 | inconclusive [inhibitor, single point]
36 | COc1cc(OC)c(NC(=O)N2CCc3cc(S(=O)(=O)N4CCC(C)CC4)ccc32)cc1Cl | active: 8.2 µM
37 | CN(Cc1cnn(-c2ccccc2)c1)C(=O)C1CCC(=O)N(C2CC2)C1 (stereo not given) | inactive
38 | CC(NC(=O)Nc1ccccc1F)C(C)(C)C (stereo not given) | inactive
39 | Cc1ccc2[nH]c(=O)c(C(c3nnnn3C(C)(C)C)N(Cc3ccco3)CC3CCCO3)cc2c1 (stereo not given) | inconclusive [inhibitor, single point]
40 | CN1CCc2c(sc3nc(NN)n(-c4ccc(Cl)cc4)c(=O)c23)C1 | inconclusive [inhibitor, single point]
41 | COc1ccc(CNC(=O)C(=O)NCC2OCCN2S(=O)(=O)c2ccc(OC)cc2)cc1 (stereo not given) | inconclusive [inhibitor, single point]
42 | O=C(CN1C(=O)c2ccccc2C1=O)Nc1cccc(O)c1 | inactive
43 | COc1cc(C(=O)c2ccc3c(c2)OCO3)cc(OC)c1OC | active: 5.17 µM
44 | O=C(NCCc1ccccc1)c1cnc2sc(N3CCCCC3)nn2c1=O | active: 20.6 µM
45 | O=C(c1cc2ncc(Br)cn2n1)N1CCN(C(=O)c2ccco2)CC1 | inactive
46 | NNc1nc(-c2ccccc2)nc2sc3c(c12)CCCC3 | active: 20.6 µM
47 | N#C/C(=C\c1ccc(N2CCOCC2)o1)C(=O)NCCc1ccccc1 | inconclusive [inhibitor, single point]
48 | Cc1ccccc1CN1CCN(C(=O)c2ccc(F)cc2)CC1 | inactive
49 | CCOc1ccc(NCC(=O)N/N=C/C=C/c2ccccc2)cc1 | inconclusive [inhibitor, single point]
50 | COc1ccc(Nc2nc(N)nc(CSC(=S)N3CCN(C)CC3)n2)cc1 | inconclusive [inhibitor, single point]
